This note sets out measurements from PubChem BioAssay AID1963576 (National Center for Advancing Translational Sciences (NCATS), 2024).

The campaign covered roughly 46,000 compounds. About 60 (0.1%) were called active. Roughly 3% stayed inconclusive and do not appear here. Calls come from the whole dose curve; as a rule, active = well fitted inhibition curve with a large enough effect; inconclusive = small, poorly fitted or top-dose-only effect; inactive = no such curve, though single readings can be large or run the other way. Some of the results follow.

The experiment in a line: Primary qHTS assay for Inhibitors of ovarian cancer metastasis using an organotypic tumor microenvironment (TME) model.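 For activity change, negative = inhibition: plate controls were DMSO wells for no effect and tomatine positive control wells for full effect.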 Note: nearly all actives have a fitted effect of over 65% in size. Particulars: SKOV3ip1-GFP adhesion/invasion on 3D omental model, fluorescence; series mostly up to 45.8 µM; activity change, negative = inhibition: at the top concentration. The gist of the method:
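Adhesion/invasion was scored as fixed GFP-labeled SKOV3ip1 cell counts (488/509 nm), normalized to DMSO and tomatine controls. Cancer cells in serum-free medium, with four compound doses (0.36-46 umol/L), sat 2 hr at RT then 16 hr at 37 C on a 48 hr fibroblast/mesothelial/ECM culture.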
For the compound `CCCCCCNC(=O)n1cc(F)c(=O)[nH]c1=O`, the “activity change, negative = inhibition” value was inactive: -6.83%.

On to `O=[N+]([O-])c1cc(-c2nc(-c3ccccc3)no2)ccc1NC1CCCC1`, for which the “activity change, negative = inhibition” value was inactive: -2.34%.

Turning to `COc1ccc(CN2C(=O)N(c3ccc(C)cc3)C(=O)C2CC(=O)Nc2ccccc2)cc1OC` (configuration not stated), the compound was classed as inactive.

`O=C1CCCc2[nH]c(=O)c(-c3nc(-c4cccc([N+](=O)[O-])c4)cs3)cc21`: the call was inactive.

On to `CC(=O)c1ccc(NC(=O)Cn2c(=O)oc3cc(S(=O)(=O)N4CCCCC4)ccc32)cc1`, for which the “activity change, negative = inhibition” value was inactive: 4.38%.

As to `Cc1ccc2c(c1)C(C)(c1ccccc1)CC(C)(C)N2C(=O)c1ccc(F)cc1` (configuration not stated), the “activity change, negative = inhibition” value was inactive: -0.659%.

In the case of `COc1ccc(-c2nc(CNC(=O)NC3CCCCC3)c(C)o2)c(OC)c1`, the “activity change, negative = inhibition” value is inactive: 0.658%.

Take `Cc1ccc(C(=O)c2sc(Nc3ccc(F)cc3)nc2N)c(C)c1`: the compound was called inactive.

Regarding `CC1=C(c2ccc(C)cc2)S(=O)(=O)N(Cc2ccc(C(=O)NCc3ccccc3F)cc2)C1=O`, the “activity change, negative = inhibition” value is inactive: -0.319%.

Take `CCCCCCc1cc2cc(-c3cn4c(n3)sc3cc(OC)ccc34)c(=O)oc2cc1O`: the call was inactive.

Consider `O=C(CN1C(=O)COc2ccc(S(=O)(=O)N3CCOCC3)cc21)N1CCN(c2ccc(Cl)cc2)CC1`, for which the outcome was inactive.

For the compound `O=S(=O)(NCCc1cn2ccsc2n1)c1ccc(Cl)cc1`, the call was inactive.

Take `CCOC(=O)c1cc2c(=O)n3ccccc3nc2n(Cc2ccco2)c1=NC(=O)c1ccc(F)cc1`: the “activity change, negative = inhibition” value is inactive: 15.7%.

For `O=C(CCCn1c(=O)[nH]c2ccccc2c1=O)N1CCN(c2ccccc2)CC1`, the “activity change, negative = inhibition” value was inactive: -10.7%.

For `CCOC(=O)c1ccccc1NC(=O)COc1cc(=O)n(CC)c2ccccc12`, the compound was classed as inactive.

`COc1cc(OC)c(NC(=O)Cn2cnc3c(nc4n3CCCCC4)c2=O)cc1Cl`: the “activity change, negative = inhibition” value was inactive: -1.39%.

Turning to `CCN(CCCNC(=O)Cn1ncc2c3ccccc3n(C)c2c1=O)c1cccc(C)c1`, the “activity change, negative = inhibition” value is inactive: -9.06%.

Consider `Cc1ccccc1C(=O)n1nc(-c2cccnc2)nc1NCc1ccc(F)cc1`, for which the “activity change, negative = inhibition” value was inactive: -12.9%.

In the case of `O=C(Nc1cccc(Cl)c1)c1cc(S(=O)(=O)N2CCC3(CC2)OCCO3)ccc1F`, the “activity change, negative = inhibition” value is inactive: 3.43%.

For `O=C(CN1CCN(C2CCCCC2)C(=O)C1=O)Nc1ccc(Cl)cc1`, the “activity change, negative = inhibition” value was inactive: -12.7%.

In the case of `COc1ccc(NC(=O)CC(C)S(=O)(=O)c2ccc3c(c2)NC(=O)CO3)cc1OC` (configuration not stated), the call was inactive.

Turning to `Cc1ccc(-n2ncc3c(N4CCCCC4)ncnc32)cc1`, the “activity change, negative = inhibition” value is inactive: -11.7%.

`COc1ccc(Cl)cc1NC(=O)c1sc2nc3c(cc2c1N)CN(C)CC3`: the “activity change, negative = inhibition” value was inactive: -2.09%.

For the compound `Cc1cccc(C)c1NC(=O)Cn1c(=O)cc(C)c2c(C)nn(-c3cccc(Cl)c3C)c21`, the call was inactive.

With `O=C(CCC1N=C2c3ccccc3N=C(SCc3ccc(Cl)cc3)N2C1=O)NC1CCCCC1` (configuration not stated), the call was inactive.

In the case of `CCOc1ccccc1NC(=O)Cn1c(=O)n(Cc2ccccc2)c(=O)c2c3c(sc21)CN(C(C)=O)CC3`, the “activity change, negative = inhibition” value is inactive: -9.62%.

As to `CC(C)CCN1C(=O)c2ccccc2CC1(C)C(=O)NC1CCCCC1` (configuration not stated), the “activity change, negative = inhibition” value is inactive: -5.81%.

Take `COc1ccc(OC)c(NC(=O)Cn2c(CCC(=O)O)ccc2-c2ccccc2)c1`: the “activity change, negative = inhibition” value was inactive: -0.563%.

On to `CCC(=O)Nc1ccccc1C(=O)OCc1cc(=O)n2cc(C)sc2n1`, for which the “activity change, negative = inhibition” value was inactive: -0.978%.

As to `Cc1ccc(CCNC(=O)c2cc3cc(S(=O)(=O)N4CCCCC4)ccc3n2C)cc1`, the compound was classed as inactive.

In the case of `CCOc1ccc(-n2nc3ccc(NC(=O)c4ccc(C)cc4C)cc3n2)cc1`, the outcome was inactive.

For the compound `O=C(Nc1c(C(=O)N2CCN(c3ccccc3)CC2)oc2ccccc12)c1ccccc1F`, the “activity change, negative = inhibition” value was inactive: 11.5%.

Regarding `Cc1cccc(N(C)C(=O)c2cc3c(=O)oc4ccc(C)cc4c3s2)c1`, the “activity change, negative = inhibition” value is inactive: 15.4%.

For `CCCN1CCN(C(=O)Cn2ncc3c4ccccc4n(Cc4cccc(Cl)c4)c3c2=O)CC1`, the “activity change, negative = inhibition” value is inactive: -2.38%.

On to `CC1CC(=O)N(CC(=O)Nc2ccc(OC(F)(F)F)cc2)c2ccccc2S1` (configuration not stated), for which the compound was called inactive.

For `CCOC(=O)c1cccc(NC(=O)CC2C(=O)N(c3ccc(F)cc3)C(=O)N2Cc2cccc(OC)c2)c1` (configuration not stated), the “activity change, negative = inhibition” value was inactive: 1.62%.

Take `CCOC(=O)c1ccc(Nc2nc3ccccc3n3c(C)nnc23)cc1`: the “activity change, negative = inhibition” value was inactive: -1.86%.

In the case of `CC1=Nc2cc(C(=O)NC3CCCC3)ccc2Sc2ccc(Cl)cc21`, the “activity change, negative = inhibition” value is inactive: -9.66%.

Take `COC(=O)c1ccc(C(=O)OC)c(NC(=O)c2cnn3c(C(F)F)cc(-c4ccc(C)cc4)nc23)c1`: the “activity change, negative = inhibition” value is inactive: 4.9%.

Turning to `CCN1CCOC(=O)C1CC(=O)Nc1cc(Cl)ccc1C` (configuration not stated), the result was inactive.

`CCN1CCN(CCCNC(=O)c2cnn(-c3ccc(OC)cc3)c2C2CCN(C(=O)OC(C)(C)C)CC2)CC1`: the “activity change, negative = inhibition” value was inactive: -5.31%.

In the case of `COc1cccc(C(=O)Nc2c3c(nn2-c2ccc(C)cc2C)CS(=O)(=O)C3)c1OC`, the call was inactive.

Turning to `O=C(Cn1c(-c2cccs2)cc2cc(F)ccc21)N1CCCCC1`, the “activity change, negative = inhibition” value is inactive: -9.7%.

In the case of `COC(=O)c1scc(-c2ccc(C)cc2)c1S(=O)(=O)N1CCN(c2ccccc2F)CC1`, the “activity change, negative = inhibition” value is inactive: -2.61%.

For the compound `Cc1cccc(N2CCN(c3ncnc4c3cnn4-c3ccc(Cl)cc3)CC2C)c1` (configuration not stated), the “activity change, negative = inhibition” value was inactive: -1.15%.

For the compound `CCOc1ccc(-c2noc(CSc3nnc(Cc4ccccc4)n3-c3ccc(F)cc3)n2)cc1`, the “activity change, negative = inhibition” value was inactive: 5.77%.

As for `COc1ccc(N(C)S(=O)(=O)c2ccc3c(c2)n(C)c(=O)c(=O)n3C)cc1`, the compound was classed as inactive.
